Here are results for 1 compound from patent publication US10463688B2, “Nylon-3 polymers active against Clostridium difficile” (priority 2015, dated 2019).

In brackets after ≈: the same amount, converted by molar mass.

The assay deals with C. difficile vegetative cells (R20291 strain). Kind of assay: microbe, parasite or virus in culture. As to conditions: Clostridioides difficile, 24 h, read-out: MIC, minimum inhibitory concentration for vegetative cell growth.

With `CN[C@H](CC(C)C)C(=O)N[C@H]1C(=O)N[C@@H](CC(N)=O)C(=O)N[C@H]2C(=O)N[C@H]3C(=O)N[C@H](C(=O)N[C@H](C(=O)O)c4cc(O)cc(O)c4-c4cc3ccc4O)[C@H](O)c3ccc(c(Cl)c3)Oc3cc2cc(c3O[C@@H]2O[C@H](CO)[C@@H](O)[C@H](O)[C@H]2O[C@H]2C[C@](C)(N)[C@H](O)[C@H](C)O2)Oc2ccc(cc2Cl)[C@H]1O` [vancomycin], the MIC amounted to 0.5 µg/mL (≈ 0.345 µM).
